# Article PMC7819943, “Rice protein-binding microarrays: a tool to detect cis-acting elements near promoter regions in rice”
# The list shows a part of the results.
# Target: T1, OsWOX13 (Oryza sativa, UniProt Q5QMM3 1-267)
# T1 sequence: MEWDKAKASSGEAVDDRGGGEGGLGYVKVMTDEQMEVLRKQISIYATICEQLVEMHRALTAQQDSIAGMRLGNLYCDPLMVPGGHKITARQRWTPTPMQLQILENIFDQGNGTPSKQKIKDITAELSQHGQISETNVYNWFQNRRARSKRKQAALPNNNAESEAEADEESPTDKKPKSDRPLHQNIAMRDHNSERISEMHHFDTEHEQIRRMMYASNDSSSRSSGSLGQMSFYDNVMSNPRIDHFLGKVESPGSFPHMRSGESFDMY
# Assay: protein-binding microarray (RPBM); PBS, 2% BSA, 51.3 ng/ul salmon testes DNA, 50 uM zinc acetate, 200 nM TF, 25 C, 1 h; high values mean tight binding
# Details: protein: recombinant; tags: N-terminal polyhistidine and DsRed monomer fusion (pET32a); label: CyDye5-dUTP incorporated in the synthesized complementary strand; 3' TTTTT single-stranded linker to array surface; dsDNA, one strand shown
# Procedure, shortened: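 Binding signal here means per-feature fluorescence intensity in arbitrary units. The values were read on an Axon 4000B scanner after a custom Agilent array, double-stranded by primer extension with Cy5-dUTP, was incubated with 200 nM protein at 25 °C for 1 h in PBS with 2% BSA, salmon testes DNA and 50 µM zinc acetate, then washed. The proteins were transcription factors with an N-terminal polyhistidine tag and DsRed, expressed in E. coli BL21-CodonPlus and purified on Ni–NTA.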
row,Sequence,binding signal
1,TTAATACTCATCTAATTTATAATTTGATTAAACCATTATTCGGAGTCACCTAGTGCAG,14700 fluorescence intensity (a.u.)
2,GAAGAATGTAGATGAACAACTGATTATCCCAAGTTTTGTTCGGAGTCACCTAGTGCAG,3610 fluorescence intensity (a.u.)
3,ATCCATAATTAACCTATGTGATGCTACAGTAAATATTTGTCGGAGTCACCTAGTGCAG,8520 fluorescence intensity (a.u.)
4,TTTCGATTGATTTTGCCTCCTGAAGCGTTGTCTAGCTTTTCGGAGTCACCTAGTGCAG,21600 fluorescence intensity (a.u.)
5,TCTAATGGAAGCCTTGACAAACACCTTTTCGGTATGATAACGGAGTCACCTAGTGCAG,3940 fluorescence intensity (a.u.)
6,AACTTAACAGGACCAATGAAATTTAACAATATGAAAGCTCCGGAGTCACCTAGTGCAG,8820 fluorescence intensity (a.u.)
7,GTGACATATATCTGCCTGATTGATTAATCGGATGGACGATCGGAGTCACCTAGTGCAG,51600 fluorescence intensity (a.u.)
8,TTAATTTACCGGATTCAATATTCCATATTTAGAAGTCACCCGGAGTCACCTAGTGCAG,3350 fluorescence intensity (a.u.)
9,TATAACTAAAATTAAAATTACATTTGTAAGTTCAGTTGATCGGAGTCACCTAGTGCAG,16000 fluorescence intensity (a.u.)
10,GAGGGCAAATAAGTAATTATCTCGGAATCCAAGATTATGTCGGAGTCACCTAGTGCAG,3730 fluorescence intensity (a.u.)
11,TGAACTGATTGGTCAGGAGGTAGTTACCAACGACTGAAATCGGAGTCACCTAGTGCAG,11500 fluorescence intensity (a.u.)
12,CATACAAATCATTACCCTAATTAACTTACTTATTTAAGATCGGAGTCACCTAGTGCAG,21400 fluorescence intensity (a.u.)
13,TTCTGGTGAGAGTAATTAATTAGCTAGCTGGGTGAACAGTCGGAGTCACCTAGTGCAG,8520 fluorescence intensity (a.u.)
14,TTTTGCATTAATTTGATCAAAGCAGTTGTATTGTTGTGAACGGAGTCACCTAGTGCAG,6720 fluorescence intensity (a.u.)
15,GACGGAGATTGAACTCGAGCTTCTGCGCAAGAACGGTGCGCGGAGTCACCTAGTGCAG,6290 fluorescence intensity (a.u.)
16,GGAGAGAGATTAGCACATTGATGGTTGTAATTTCCATTTTCGGAGTCACCTAGTGCAG,5320 fluorescence intensity (a.u.)
17,TATCAAGATATGTCAATCTAATCTTTTGGAGATGTTTATACGGAGTCACCTAGTGCAG,5860 fluorescence intensity (a.u.)
18,AGTAATTTGTTTGGTTGAACCTGGTGGTGAGTCCAAAAGGCGGAGTCACCTAGTGCAG,5690 fluorescence intensity (a.u.)
19,CAAATATAATTATAGTATAATCATGATGTAATTATACTATCGGAGTCACCTAGTGCAG,33100 fluorescence intensity (a.u.)
20,TGTAATAATGGAATAAACAAATGCTCACCAAATTAAGTCTCGGAGTCACCTAGTGCAG,5400 fluorescence intensity (a.u.)
21,GAAACACCATAATGGACACTAAATTACCATATCTTCAAGACGGAGTCACCTAGTGCAG,8190 fluorescence intensity (a.u.)

row,Sequence,binding signal
1,GCTAATGTACGGTGTATATATGATTGCCTTCTCGATTTTGCGGAGTCACCTAGTGCAG,7490 fluorescence intensity (a.u.)
2,ATGAACAACAATTGATTTTGTTACTATATTCCAGCCAATTCGGAGTCACCTAGTGCAG,5300 fluorescence intensity (a.u.)
3,CGATTAATTAGAATGCAGGTAATCGAAGTTATACGAAAATCGGAGTCACCTAGTGCAG,7310 fluorescence intensity (a.u.)
4,TTTAAATTGAAACGCATAGTAATATTTAGGGCCCGAGCCTCGGAGTCACCTAGTGCAG,30100 fluorescence intensity (a.u.)
5,AAAATAATTAAAATAGTACGAGTAGATTCACACAAGATCTCGGAGTCACCTAGTGCAG,8260 fluorescence intensity (a.u.)
6,ACATTGATTAATACGAAATATATCACTCCACAAACATACGCGGAGTCACCTAGTGCAG,36000 fluorescence intensity (a.u.)
7,GCGGTGGTGGTGGGCTTAGTGGAGGCGGAGGCGGCTGAGGCGGAGTCACCTAGTGCAG,3750 fluorescence intensity (a.u.)
8,GTTAAAATGGACCGAAATTTTCAACTAAATTCCTGGCCCACGGAGTCACCTAGTGCAG,5200 fluorescence intensity (a.u.)
9,TCACATAATTACATCCAGGTCCTCGAGCACGCGACACGGACGGAGTCACCTAGTGCAG,15100 fluorescence intensity (a.u.)
10,AAACTCCAATCAAGACCTCTGTGGATGGGCATCCGATGGACGGAGTCACCTAGTGCAG,7350 fluorescence intensity (a.u.)
11,CGTAAACTAACAGTTAAACACCCCTATAAAACAGGCGCCCCGGAGTCACCTAGTGCAG,5660 fluorescence intensity (a.u.)
12,AACTAACAAATTGGCATGGAAACACTAGTATTTTCTAAAGCGGAGTCACCTAGTGCAG,15500 fluorescence intensity (a.u.)
13,AGTGAATTGTCACTTTCTATAGATTGCAACAAAATGAGTACGGAGTCACCTAGTGCAG,3200 fluorescence intensity (a.u.)
14,ACCCTTTGACACTGTTCTTCCTCTCTCTCTCTTCTTTTCTCGGAGTCACCTAGTGCAG,3230 fluorescence intensity (a.u.)
15,GCCCGCCGCGCCAATCAACCGCCGTCGGCCACCGGAAAGCCGGAGTCACCTAGTGCAG,3920 fluorescence intensity (a.u.)
16,AATAATTAGAAGAAATTGTGAGCGTGTTGAGAATTTAGGGCGGAGTCACCTAGTGCAG,26400 fluorescence intensity (a.u.)
17,GTTCATTACCCCTGTGATTAGTCGCTAACTAAGGTGTCGGCGGAGTCACCTAGTGCAG,17800 fluorescence intensity (a.u.)
18,AAACTGTCCATGTCCAAGCTCCACAACAAGATACTTGCAACGGAGTCACCTAGTGCAG,8270 fluorescence intensity (a.u.)
19,TTTGTAGAGTTAATAGATAGACTAGAAACTTAAAGTAGCCCGGAGTCACCTAGTGCAG,4670 fluorescence intensity (a.u.)
20,TCGTTGGTGGGTAGGTGGTGGAGATGGTGGTGGCGGCGGGCGGAGTCACCTAGTGCAG,4870 fluorescence intensity (a.u.)
21,TCTAATCACTTCGAAACTGTGTTAATAACGAGCAAACACACGGAGTCACCTAGTGCAG,4470 fluorescence intensity (a.u.)
